Results as given in the RNAGym collection of RNA variant scans (doi:10.7554/elife.90254).
The source gives no read counts; variants with many changes may rest on few reads.

B1: OR4K15 (parent)
chain: GUUAACGGUCAUAGGCCAUGGAAACUAGGAGCACCAUUUCGCUGCCAGUGAAGAAAUGAACAAAGAAAAUCUGGGCCAGGCAGGCAUCAAAAGAAAUAGUCUUGCGCUCAACCAGAAAGUCUGUAAUCAUUUUAAGGGUA

Variants of: B1
Test: self-cleavage, relative activity (ratio to wild type); higher = more cleavage; in vitro, sequencing; the parent is a self-cleaving ribozyme

Variant | self-cleavage
U12A C17A A69G U97A | 2.35
U12A C46U G138A | 1.12
U12A G44A U102C | 1.15
U12A U19C A66U | 1.65
U12A U37A A116C A118G | 0.44
U12A U39A A54G C61G A111U | 0.18
U12A U43C C107U U124A | 0.06
U12A U43C U102C U108C A117G | 0.02
U12A U49C A51G A91G | 1.52
U12A U49C A78G A82G A114U | 0.05
U12A U102C A126G U131C | 1.62
U12C A13G U120C | 0.34
U12C A18G A56G A98G | 0.73
U12C A18G A62G | 0.89
U12C A18G A90G U100C | 1.2
U12C A18G U43A A62G U131C | 1.03
U12C A18G U49G | 1.9
U12C A18U A33U U38C | 0.89
U12C A22G A23G U102C U130C | 1.07
U12C A22G A30U A91G | 0.75
U12C A22G A92G | 1.05
U12C A22U A23G C85U | 0.47
U12C A22U A30G A82G A126G | 0.41
U12C A22U A95G | 2.18

Variant | self-cleavage
U12C A23C A60G A86G U131C | 0.41
U12C A23U A68G U130A | 0.66
U12C A24G A66G A67C | 1.32
U12C A24G A91G | 0.79
U12C A30G A78C U108C U124C | 0.01
U12C A30G A129G | 0.6
U12C A30G G31U U87A | 1.18
U12C A33C A56G | 1.06
U12C A33C A140G | 1.73
U12C A33G U38C | 0.91
U12C A33U G41A A69G C85U | 1.49
U12C A36G C77A A110G | 0.12
U12C A36G G79U C81U | 0.1
U12C A36U A67G U108C | 0.09
U12C A47G A55G | 1.08
U12C A51G A68G | 1.32
U12C A52C A64U | 0.77
U12C A52G A56C | 1.7
U12C A52G A67G A78G | 0.16
U12C A54G A55C | 1.36
U12C A55G A95G U122G | 2.68
U12C A56G A68G | 0.34
U12C A56G G99A | 0.5
U12C A59G A66G A69G | 0.88

Variant | self-cleavage
U12C A59G A69G U102C | 2.14
U12C A59G A125G | 0.38
U12C A59U A68G A69U | 0.95
U12C A59U U70C U130C | 0.43
U12C A60G A62G U72C A110U U127C A140U | 0.08
U12C A60G A66G A86U A117U | 0.9
U12C A60G A92G A110G U120C U127C | 0
U12C A64C U72A A117G U131C | 0.13
U12C A66U A69G C128U | 1.09
U12C A67G A110G | 0.36
U12C A68G A89G A111G | 0.03
U12C A68G A95G | 1.99
U12C A69G A98G U131C | 0.54
U12C A78U A86U | 0.75
U12C A82G A92G | 0.36
U12C A86G A111G | 0.06
U12C A86G G106A | 0.05
U12C A86U A89U | 1.55
U12C A89G A126G | 1.25
U12C A91C A126G | 1.49
U12C A91G U108C | 0.07
U12C A94G A111G | 0.05
U12C A95G A114G U127C | 0.08
U12C A96G U124C | 0.6

Variant | self-cleavage
U12C A98C U100C A117G | 2.8
U12C A111G U130C | 0.05
U12C A116G U131C | 0.34
U12C C16U U37C | 0.98
U12C C17U U87C | 1.33
U12C C25U A62U U70G | 1.15
U12C C32U A68G | 1.99
U12C C61U A140G | 0.84
U12C G14C A116G | 1.02
U12C G15A U38C U39G | 1.26
U12C G44A A94G U139C | 1.52
U12C G48A A59G A78G U102C | 0.37
U12C G48U A54G U57C | 1.22
U12C G50U U57C | 0.91
U12C G80C U87C A90G U103G | 0.02
U12C U19A A22G U39C | 1.57
U12C U19A A116C | 0.17
U12C U19A U72A | 0.74
U12C U19C G20A A51U A52G A126G | 0.08
U12C U26A C40U A55G U57C | 0.49
U12C U37C A60G A68G A92G U120C | 0.33
U12C U38A A60G A110U A117G G138U | 1.23
U12C U38A A64G U132C | 1.2
U12C U38C A51G A56G A78G U130C | 0

Variant | self-cleavage
U12C U39A U131C U132C | 1.89
U12C U39C A68G A90G A94G G123A | 1.01
U12C U43A U57C A114G | 0.22
U12C U43C C46U A95G U102A A134G | 0.92
U12C U57C A92U U120C | 0.88
U12C U70C C81U C85U A114C | 0.03
U12C U72C A78U | 0.17
U12C U100C U131C | 2.57
U12C U102C A114G | 0.08
U12C U103C A129G | 0.3
U12G A22U A24G U122G | 2.05
U12G A24G A27U A51G A59G | 1.27
U12G A24G G74U U100C U132C | 0
U12G A27G A52G A98G | 0.76
U12G A33G A78G | 0.27
U12G A114G U131C | 0.15
U12G U100C U102A | 1.98
A13C A18U A22G A36G A55G A63G A118G U130C | 0.7
A13C A24G U108C | 0.1
A13C A33G U39C | 0.74
A13G A18G A30G A91G U102A A111G | 0.03
A13G A22G U43G A56G | 0.86
A13G A22G U108C | 0.02
A13G A23G A51G A110G | 0.39

Variant | self-cleavage
A13G A23G A62G A69G | 0.57
A13G A23G A67G A86U | 1.4
A13G A23G A67U | 0.86
A13G A24G A52G A92G U97A | 0.87
A13G A24G A60G A66G | 1.06
A13G A24G A125G | 0.52
A13G A24G U122C | 1.18
A13G A27G U37C A62G A64G A82C A111G | 0.04
A13G A27G U39A A51G A94G U139A | 0.88
A13G A27U A33G U87A | 0.66
A13G A30G A33C A90G | 0.53
A13G A30G A33G A52G | 0.95
A13G A30G A67G A96G A118G | 0.97
A13G A30G U37C A47U A82G U122C A126G | 0.22
A13G A30U A33G C61U | 0.94
A13G A30U U39C A67G U70C A92G A126G | 0.47
A13G A33G U43A U72G | 0.46
A13G A33G U72C U87A U102C | 0.73
A13G A36G A117G | 1.23
A13G A36G U38A U49A | 0.56
A13G A47G A111U A140G | 0.15
A13G A47G G73A A78U A86G A95G | 0.22
A13G A47G U102C | 1.24
A13G A47U A51G A54U U103C | 0.25

Variant | self-cleavage
A13G A51C U57C A60G A68G | 0.8
A13G A51G A96G A110G A125U | 0.43
A13G A51G A117U | 1.01
A13G A51G A129G | 0.87
A13G A51G U132C | 0.66
A13G A52G A60G U103C U131C | 0.5
A13G A52G A64U A68G A89G G104A | 0.09
A13G A52G U57C | 0.43
A13G A55G A63G U108C U130C | 0.02
A13G A55U A64G A91G | 0.41
A13G A60G A67G | 0
A13G A62G U72C A96U | 1.09
A13G A63G A64G A89G | 0.59
A13G A63G A66G U72C A96G U108C | 0.05
A13G A64G C76G A89U C121U | 0.35
A13G A66C A110G U120C | 0.19
A13G A67G A92U | 1.28
A13G A69G U120C G136A | 0.74
A13G A78U A116G U132C | 0
A13G A82G A95G A96G U108C A116G | 0.05
A13G A82U A117U | 0
A13G A86G U127C | 1.36
A13G A90U U100A | 1.18
